The values below come from the antibiotic and cytotoxicity screens of Wong et al. (2023).

Some of the results follow.

For one assay, the system named is HSkMC. In words: cytotoxicity call (relative viability < 0.9). To be noted: 10 µM.
Another assay concerns HepG2. In words: cytotoxicity call (relative viability < 0.9). To be noted: 10 µM.
In a further assay the test system is S. aureus RN4220. In words: growth inhibition call (relative growth <= 0.2). To be noted: 50 µM.

Turning to `Cc1noc(C)c1NC(=O)N(C)C[C@@H]1Oc2ccc(NC(=O)CCN3CCOCC3)cc2C(=O)N([C@H](C)CO)C[C@@H]1C`, the cytotoxicity call in the assay with HSkMC and with HepG2 was “inactive” each time. Further, the growth inhibition call with S. aureus RN4220 is “inactive”.

As to `C[C@H]1CN([C@@H](C)CO)C(=O)c2cccc(NS(C)(=O)=O)c2O[C@H]1CN(C)S(=O)(=O)c1ccccc1`, the cytotoxicity call in the assay with HSkMC and in the assay on HepG2 was “inactive” in each case. Further, the growth inhibition call in the assay on S. aureus RN4220 is “inactive”.

On to `CO[C@@H]1CN(C)C(=O)c2cc(NC(=O)Nc3cccc(F)c3)ccc2OC[C@H](C)N(C(=O)Nc2c(C)noc2C)C[C@H]1C`, for which the cytotoxicity call in the assay on HSkMC and with HepG2 was “inactive” each time. Further, the growth inhibition call in the assay with S. aureus RN4220 was “inactive”.

On to `COc1ccc(S(=O)(=O)Nc2ccc3c(c2)C(=O)N([C@H](C)CO)C[C@H](C)[C@@H](CN(C)C(=O)Nc2ccc(C(F)(F)F)cc2)OCCCC[C@H](C)O3)cc1`, for which the cytotoxicity call in the assay with HSkMC and in the assay on HepG2 was “inactive” in each case. Also, the growth inhibition call with S. aureus RN4220 was “inactive”.

`CC(C)c1c(C(=O)Nc2ccccc2)c(-c2ccccc2)c(-c2ccc(F)cc2)n1CC[C@@H](O)C[C@@H](O)CC(=O)O`: the cytotoxicity call in the assay with HSkMC and in the assay on HepG2 was “inactive” in each case. In addition, in the assay on S. aureus RN4220, the growth inhibition call was “inactive”.

With `O=C(NCC(F)(F)F)c1cc2c(c(-c3cccc(-c4ccccc4F)c3)n1)[C@@H](CCO)N(C(=O)CC1CC1)C2`, in the assay on HSkMC, the cytotoxicity call was “active”. Also, the cytotoxicity call in the assay on HepG2 is “inactive”. In addition, the growth inhibition call in the assay on S. aureus RN4220 is “inactive”.

As to `C[C@H](CO)N1C[C@H](C)[C@H](CN(C)Cc2ccc(Oc3ccccc3)cc2)Oc2ccc(NC(=O)Cc3ccccc3)cc2CC1=O`, the cytotoxicity call in the assay with HSkMC and in the assay on HepG2 was “inactive” in each case. Also, in the assay with S. aureus RN4220, the growth inhibition call is “inactive”.

With `C[C@H](CO)N1C[C@H](C)[C@@H](CN(C)Cc2ccncc2)Oc2c(NC(=O)C3CCOCC3)cccc2C1=O`, the cytotoxicity call in the assay with HSkMC and in the assay on HepG2 was “inactive” throughout. In the assay on S. aureus RN4220, the growth inhibition call was “inactive”.

For `C[C@@H]1CN([C@H](C)CO)C(=O)c2cc(NC(=O)c3ccncc3)ccc2O[C@H]1CN(C)Cc1ccc(C(=O)O)cc1`, the cytotoxicity call with HSkMC and with HepG2 was “inactive” in each case. Also, the growth inhibition call in the assay on S. aureus RN4220 was “inactive”.

For the compound `C[C@@H]1CN([C@@H](C)CO)S(=O)(=O)c2ccc(C#Cc3ccncc3)cc2O[C@H]1CN(C)S(=O)(=O)c1ccc(F)cc1`, the cytotoxicity call in the assay with HSkMC was “inactive”. In the assay with HepG2, the cytotoxicity call was “active”. Besides, the growth inhibition call in the assay on S. aureus RN4220 is “inactive”.

Consider `O=C(N[C@@H]1CC[C@H](CCn2cc(C3(O)CCCC3)nn2)O[C@H]1CO)C1CCOCC1`, for which the cytotoxicity call in the assay on HSkMC and in the assay with HepG2 was “inactive” in each case. Further, the growth inhibition call in the assay on S. aureus RN4220 is “inactive”.

Consider `CN(C)CCNC(=O)[C@@H]1CCS(=O)(=O)[C@H]2CN(C(=O)Nc3ccccc3)C[C@@H]12`, for which the cytotoxicity call with HSkMC and in the assay on HepG2 was “inactive” throughout. For the same compound, in the assay on S. aureus RN4220, the growth inhibition call is “inactive”.

On to `C[C@@H]1CN([C@H](C)CO)C(=O)c2cc(NC(=O)CCCN(C)C)ccc2O[C@H]1CN(C)S(=O)(=O)c1ccc(F)cc1`, for which the cytotoxicity call in the assay on HSkMC and with HepG2 was “inactive” each time. Also, the growth inhibition call in the assay with S. aureus RN4220 is “inactive”.

With `C[C@@H]1CN([C@@H](C)CO)C(=O)CCCn2nncc2CO[C@H]1CN(C)S(=O)(=O)c1ccc(Oc2ccccc2)nc1`, the cytotoxicity call with HSkMC and in the assay on HepG2 was “inactive” in each case. For the same compound, the growth inhibition call in the assay on S. aureus RN4220 is “inactive”.

For `O=C(C[C@@H]1CC[C@@H](NS(=O)(=O)c2ccccc2F)[C@@H](CO)O1)NCCCN1CCOCC1`, the cytotoxicity call in the assay on HSkMC and in the assay on HepG2 was “inactive” throughout. Further, the growth inhibition call with S. aureus RN4220 is “inactive”.

For the compound `CCS(=O)(=O)N1C[C@]2(C1)CN([C@H](CO)c1[nH]c3cc(ccc3c12)OC)S(=O)(=O)c1cn(cn1)C`, the cytotoxicity call in the assay on HSkMC and with HepG2 was “inactive” each time. For the same compound, the growth inhibition call in the assay on S. aureus RN4220 was “inactive”.

Take `COc1ccc2c3c(n(c2c1)C)[C@@H](CO)N(C[C@]13CN(C1)C(=O)C)C(=O)CN1CCOCC1`: the cytotoxicity call with HSkMC and in the assay with HepG2 was “inactive” each time. In addition, the growth inhibition call with S. aureus RN4220 was “inactive”.

Consider `C[C@@H]1CN([C@@H](C)CO)C(=O)c2cccc(NC(=O)c3cnccn3)c2O[C@@H]1CN(C)S(=O)(=O)c1ccc(F)cc1`, for which the cytotoxicity call with HSkMC and with HepG2 was “inactive” each time. In addition, in the assay with S. aureus RN4220, the growth inhibition call was “inactive”.

In the case of `COC(=O)c1c2oc(c1C(=O)OC)C(=O)N(C)Cc1cn(nn1)C[C@@H](Cc1ccccc1)NC(=O)N[C@H](CO)CC2`, the cytotoxicity call in the assay with HSkMC and with HepG2 was “inactive” in each case. Besides, in the assay with S. aureus RN4220, the growth inhibition call is “inactive”.

On to `C[C@H](CO)N1C[C@H](C)[C@H](CN(C)CC2CCCCC2)OCCCC[C@H](C)Oc2ccc(NC(=O)c3ccccc3)cc2C1=O`, for which the cytotoxicity call with HSkMC and in the assay with HepG2 was “inactive” throughout. Further, the growth inhibition call in the assay on S. aureus RN4220 is “inactive”.

Take `COc1ccc(NC(=O)Nc2ccc3c(c2)C(=O)N([C@@H](C)CO)C[C@@H](C)[C@H](CN(C)S(=O)(=O)c2ccccc2)OCCCC[C@H](C)O3)cc1`: the cytotoxicity call in the assay on HSkMC and in the assay on HepG2 was “inactive” in each case. Besides, the growth inhibition call in the assay on S. aureus RN4220 is “inactive”.

In the case of `C[C@@H]1CN([C@@H](C)CO)C(=O)c2cc(-c3cccc(C#N)c3)cnc2O[C@H]1CN(C)C(=O)C1CCOCC1`, the cytotoxicity call in the assay with HSkMC and with HepG2 was “inactive” each time. The growth inhibition call in the assay on S. aureus RN4220 is “inactive”.

For the compound `COCCOC(=O)N1C(=O)[C@@]2(c3ccccc31)[C@H](C(=O)N1CCc3cc(OC)c(OC)cc3C1)[C@H]1C(=O)O[C@H](c3ccccc3)[C@H](c3ccccc3)N1[C@@H]2c1ccc(O)cc1`, the cytotoxicity call in the assay on HSkMC and with HepG2 was “inactive” throughout. In the assay on S. aureus RN4220, the growth inhibition call was “inactive”.

As to `CC(C)NC(=O)N(C)C[C@H]1Oc2ncc(-c3ccc(C(=O)N(C)C)cc3)cc2C(=O)N([C@@H](C)CO)C[C@H]1C`, the cytotoxicity call in the assay on HSkMC and in the assay with HepG2 was “inactive” each time. In addition, in the assay with S. aureus RN4220, the growth inhibition call is “inactive”.

In the case of `Cc1noc(C)c1NC(=O)N(C)C[C@H]1Oc2ccc(NS(=O)(=O)c3cn(C)cn3)cc2CC(=O)N([C@H](C)CO)C[C@@H]1C`, the cytotoxicity call in the assay with HSkMC and with HepG2 was “inactive” in each case. For the same compound, the growth inhibition call in the assay with S. aureus RN4220 is “inactive”.

On to `COc1ccc(S(=O)(=O)N(C)C[C@@H]2Oc3ccc(NS(=O)(=O)c4cn(C)cn4)cc3C(=O)N([C@@H](C)CO)C[C@H]2C)cc1`, for which the cytotoxicity call in the assay with HSkMC and in the assay with HepG2 was “inactive” each time. Also, the growth inhibition call with S. aureus RN4220 was “inactive”.

On to `Cc1noc(C)c1NC(=O)N(C)C[C@@H]1Oc2c(NC(=O)c3ccncc3)cccc2C(=O)N([C@@H](C)CO)C[C@@H]1C`, for which the cytotoxicity call in the assay on HSkMC (human skeletal muscle cells) and in the assay on HepG2 was “inactive” in each case. Moreover, the growth inhibition call with S. aureus RN4220 is “inactive”.

For `C[C@@H]1CCCCO[C@H](CN(C)CC2CCCCC2)[C@@H](C)CN([C@H](C)CO)C(=O)c2cc(NC(=O)Nc3ccc(C(F)(F)F)cc3)ccc2O1`, the cytotoxicity call in the assay with HSkMC and in the assay on HepG2 was “active” throughout. For the same compound, the growth inhibition call in the assay on S. aureus RN4220 is “inactive”.
